Among all 310,000 compounds or so, about 14,000 (4.5%) showed an effect of 50% or more. The effect is printed as a negative number. Some of the results follow.
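Also: peak tail current of the secondary pulse compared with the same well before compound.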

Sequence of human ether-à-go-go-related gene (hERG) potassium channel (Q12809 whole entry, looked up): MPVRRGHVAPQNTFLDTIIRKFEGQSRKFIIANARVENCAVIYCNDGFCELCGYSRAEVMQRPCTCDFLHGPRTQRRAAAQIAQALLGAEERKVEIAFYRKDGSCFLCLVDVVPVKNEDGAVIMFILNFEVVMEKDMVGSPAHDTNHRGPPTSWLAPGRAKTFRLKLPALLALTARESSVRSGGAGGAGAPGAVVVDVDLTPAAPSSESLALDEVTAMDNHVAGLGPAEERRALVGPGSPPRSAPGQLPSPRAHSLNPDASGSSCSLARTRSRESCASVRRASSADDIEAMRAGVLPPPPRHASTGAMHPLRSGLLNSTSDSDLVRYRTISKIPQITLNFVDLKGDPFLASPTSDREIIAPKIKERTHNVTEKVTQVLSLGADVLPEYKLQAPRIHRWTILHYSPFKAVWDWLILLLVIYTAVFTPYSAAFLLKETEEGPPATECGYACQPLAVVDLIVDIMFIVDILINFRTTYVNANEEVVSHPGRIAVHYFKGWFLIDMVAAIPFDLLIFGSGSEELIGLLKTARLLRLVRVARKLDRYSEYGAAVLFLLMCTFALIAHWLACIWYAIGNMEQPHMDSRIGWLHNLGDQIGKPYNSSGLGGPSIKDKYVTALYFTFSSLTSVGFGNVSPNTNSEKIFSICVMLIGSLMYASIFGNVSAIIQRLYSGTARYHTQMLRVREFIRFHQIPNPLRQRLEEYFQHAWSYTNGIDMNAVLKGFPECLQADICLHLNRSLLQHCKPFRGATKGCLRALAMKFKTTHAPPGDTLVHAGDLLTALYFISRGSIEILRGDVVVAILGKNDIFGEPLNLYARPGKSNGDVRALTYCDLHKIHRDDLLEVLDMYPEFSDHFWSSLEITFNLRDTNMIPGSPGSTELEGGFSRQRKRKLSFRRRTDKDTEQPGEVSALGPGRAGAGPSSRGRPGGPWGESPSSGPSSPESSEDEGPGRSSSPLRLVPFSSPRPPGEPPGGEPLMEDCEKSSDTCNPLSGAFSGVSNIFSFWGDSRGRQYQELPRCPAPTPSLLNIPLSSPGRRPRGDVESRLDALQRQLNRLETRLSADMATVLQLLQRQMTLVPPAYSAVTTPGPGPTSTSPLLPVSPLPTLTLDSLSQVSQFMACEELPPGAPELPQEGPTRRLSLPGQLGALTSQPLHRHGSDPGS

The test addresses human ether-à-go-go-related gene (hERG) potassium channel (human, UniProt Q12809). Briefly: primary screen, population patch clamp on CHO cells stably expressing hERG.
As for `Cc1ccc(C)c(NC(=O)NCc2ccccn2)c1`, the “hERG current change (%, negative = inhibition) at 10uM” value came out at 13%.
The value for `COc1ccc(C(C)=O)cc1COC(=O)CCNS(=O)(=O)c1ccc(C)cc1` was -32.9%.
Under `CCN(CC(=O)Nc1ccccc1C(F)(F)F)C(=O)CSCC(=O)Nc1cc(C)on1` stands 1.02%; under `O=C(CSc1nnc(Cc2cccs2)n1CCc1ccccc1)N1CCCc2ccccc21`, -24.1%; under `O=C(NCc1ccncc1)C1CCN(S(=O)(=O)c2ccccc2)CC1`, -8.83%.
Take `CCC(C)NC(=O)C1c2ccccc2C(=O)N1Cc1ccc(F)cc1` (stereo not shown): the “hERG current change (%, negative = inhibition) at 10uM” value is given as -7.66%.
Under `CC(C)CN1C(=O)C(=Nc2cccnc2)c2ccccc21` stands 8.8%.
The value for `CC(=O)NC(NC(=S)Nc1ccccc1Br)C(Cl)(Cl)Cl` (stereo not shown) was 9.71%; that for `O=C(Nc1ccccc1Cl)c1ccc(COc2ccc3c(c2)CCC3)cc1` was 23.7%.
Under `Cc1ccc(C(=O)NNC(=S)NC(=O)c2ccc(Cl)cc2)cc1` stands 7.16%.
Regarding `COc1ccc2oc(=O)cc(C)c2c1`, the “hERG current change (%, negative = inhibition) at 10uM” value is 1.74%.
With `CN1C(=O)/C(=C/c2ccccc2OCc2cccc(F)c2)N(C)C1=S`, the “hERG current change (%, negative = inhibition) at 10uM” value is 6.02%.
Under `CCOC(=O)c1[nH]ncc1CN1CCCC(C(=O)c2cccc(Cl)c2)C1` (stereo not shown) stands -22.6%.
As to `O=C(NC1CCCc2ccccc21)C1CCC(CNc2c(N3CCOCC3)c(=O)c2=O)CC1` (stereo not shown), the “hERG current change (%, negative = inhibition) at 10uM” value was found to be 14.9%.
The value for `COc1ccc(OCC(=O)Nc2cc3c(cc2C(=O)O)OCCCO3)cc1` was 21.8%.
As to `CN(CC(=O)Nc1ccc(F)c(Cl)c1)S(=O)(=O)c1ccc2c(c1)n(C)c(=O)c(=O)n2C`, the “hERG current change (%, negative = inhibition) at 10uM” value was 14.9%.
Under `Cc1nc2c(N=Nc3ccccc3F)c(N)nn2c(N)c1C#N` stands 11.3%.
Regarding `COC(=O)[C@H](Cc1c[nH]c2ccccc12)NC(=O)CCCc1c[nH]c2ccccc12`, the “hERG current change (%, negative = inhibition) at 10uM” value was -1.78%.
As to `CCn1cc(CN2CCCC(C(=O)c3cccc(OC)c3)C2)c(C)n1` (stereo not shown), the “hERG current change (%, negative = inhibition) at 10uM” value was -21.3%.
Consider `CCNC(=S)N(CCc1c(C)[nH]c2ccc(C)cc12)Cc1cccs1`, for which the “hERG current change (%, negative = inhibition) at 10uM” value was found to be 11.4%.
On to `O=C(Cn1c(=O)oc2ccccc21)Nc1cccc(Cl)c1`, for which the “hERG current change (%, negative = inhibition) at 10uM” value was -6.06%.
Consider `CNC(=O)NNC(=O)c1onc(-c2c(Cl)cccc2Cl)c1C(=O)OC`, for which the “hERG current change (%, negative = inhibition) at 10uM” value stood at 10.6%.
Under `Cc1cc(O)c(-c2ccno2)cc1Cl` stands 13%; under `Cc1c(NC(=O)/C=C/c2cn(-c3ccccc3)nc2-c2ccc(F)cc2)c(=O)n(-c2ccccc2)n1C`, 7.47%; under `O=C(NCc1cccs1)c1cc(S(=O)(=O)N2CCOCC2)ccc1N1CCCC1`, -32.5%.
The value for `CCCCOc1cccc(C(=O)Nc2ccc(S(=O)(=O)Nc3cc(C)on3)cc2)c1` was 2.15%.
Under `COc1ccc(N2CCN(C(CNC(=O)C(=O)NC3CCCC3)c3ccco3)CC2)cc1` (stereo not shown) stands -14.7%.
As for `O=C(NCc1ccccn1)c1ccc2c(=O)n(CCc3ccccc3)c(=O)[nH]c2c1`, the “hERG current change (%, negative = inhibition) at 10uM” value was 8.63%.
Under `COc1ccc(CCNC(=O)C2CCN(c3ccc(N4CCOCC4)nn3)CC2)c(OC)c1` stands 0.848%; under `Cc1ccc(C)c(S(=O)(=O)N2CCN(C(=O)c3ccc(N4CCCC4)c([N+](=O)[O-])c3)CC2)c1`, -9.46%; under `O=C(Cn1cnc2c(nnn2-c2ccccc2)c1=O)N1CCOCC1`, -0.495%.
Turning to `COc1cc(NC(=S)N2CCN(c3ccccn3)CC2)cc(OC)c1OC`, the “hERG current change (%, negative = inhibition) at 10uM” value is -1.95%.
In the case of `Cn1cccc1CC(=O)N/N=C/c1cccc2ccccc12`, the “hERG current change (%, negative = inhibition) at 10uM” value was 12.3%.
Under `CC(Sc1nnc(Cc2cccs2)n1C1CCCCC1)C(=O)NCc1ccco1` (stereo not shown) stands -5.59%.
The value for `C=CCn1c(C)c(C(C)=O)c(N2CCN(C(c3ccccc3)c3ccccc3)CC2)nc1=S` was 17.4%; that for `Cc1ccccc1NC(=O)C1CC(=O)N(c2ccc3c4c(cccc24)CC3)C1` (stereo not shown) was 4.88%.
For `C=CCn1cc(C(=O)c2cc(Br)ccc2O)cc(C#N)c1=O`, the “hERG current change (%, negative = inhibition) at 10uM” value was -17.5%.
Under `O=C(COc1ccc(F)cc1)N1CCCc2ccccc21` stands 2.02%; under `CCOC(=O)C1CCCN(C(c2ccccn2)c2c(C)[nH]c3ccccc23)C1` (stereo not shown), -54.3%.
Regarding `CCOC(=O)C(=O)/C(C#N)=C/Nc1ccc(Cl)cc1`, the “hERG current change (%, negative = inhibition) at 10uM” value came to 16.1%.
Under `Cc1c(Cl)cccc1NC(=O)c1cc(C2CC2)on1` stands -21.2%; under `Cc1cc(C)nc(NC(=O)c2ccc(Cl)cc2Cl)n1`, 7.52%; under `Cc1c(/C=N/Nc2ccc(C(=O)O)cc2)c2ccccc2n1C`, 1.41%.
Under `Cc1cc(Cl)ccc1OCC(=O)NC(=S)Nc1ccc(Cl)cn1` stands 10.9%.
`COc1ccc(OCCOC(=O)C(C)NS(=O)(=O)c2ccc(NC(C)=O)cc2)cc1` (stereo not shown): the “hERG current change (%, negative = inhibition) at 10uM” value is reported as -7.73%.
Under `O=C(CN(Cc1ccco1)C(=O)c1ccc(Cl)cc1)Nc1c(Cl)cc(Cl)cc1Cl` stands 7.76%; under `CN(C)S(=O)(=O)N1CCC(CO)(Cc2cccc(C(F)(F)F)c2)CC1`, -4.25%; under `CC(=O)N1CSCC1C(=O)NNS(=O)(=O)c1ccccc1` (stereo not shown), 6.44%.
Under `CC(Sc1nccn1C)C(=O)NC1(C#N)CCCCC1` (stereo not shown) stands 6.19%.
As for `CCCSc1cc(N)cc([N+](=O)[O-])c1`, the “hERG current change (%, negative = inhibition) at 10uM” value was -7.57%.
The value for `C#CCOCCOCCOCCNc1nc(N2CCN(C(=O)[C@H]([C@@H](C)CC)n3cc([C@@H](N)CO)nn3)CC2)nc(N2CCN(C(=O)[C@H](Cc3ccc(O)cc3)n3cc([C@@H](N)C(C)CC)nn3)CC2)n1.Cl` (stereo partly shown) was 0.411%.
Under `CCC(C)[C@@H](C(=O)N1CCNCC1)n1cc(CCCCN)nn1.Cl` (stereo partly shown) stands 32.8%.
Under `COc1cccc(/C=N/n2nnnc2N)c1` stands 9%; under `CCOC(=O)/C=C(\C)Nc1cc(C)nn1-c1ccccc1`, 3.84%; under `CC1CCCN(CCOCCOc2ccc(Br)cc2Cl)C1.O=C(O)C(=O)O` (stereo not shown), -71%.

The values are drawn from article PMC4336329 (PLoS ONE, 2015).
